From PubChem BioAssay AID2546 (National Center for Advancing Translational Sciences (NCATS), 2010)
In all, about 310,000 compounds went through this assay and about 11,000 (3.5%) were called active. The inconclusive results got no clear call from the source; some entries with a clear call stand among them for comparison. Calls follow the shape of the dose curve; as a rule, active = well fitted inhibition curve with a large enough effect; inconclusive = small, poorly fitted or top-dose-only effect, or effect the other way; inactive = flat fitted curve, though single readings scatter. Potencies of inconclusive entries are left out as doubtful fits.

Test: VP16 counterscreen qHTS for inhibitors of ROR gamma transcriptional activity;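 also: Gal4-VP16 expression switched on by copper sulfate through the metallothionein promoter; nearly all actives have a fitted effect of over 50% in size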
Conditions: Drosophila S2 Gal4-VP16 UAS-luciferase, luminescence, 20 h; activity, negative = inhibition: at 53.6 µM (top of the series)
% is scaled to controls: 0 for no effect and ±100 for the full control effect; potency is read from the fitted curve at half-maximal effect; tags tell the direction and shape of the fitted curve.

SMILES	Potency	activity, negative = inhibition
Cc1ccc(C(=O)NC(=S)N2CCN(c3ccc([N+](=O)[O-])cc3)CC2)cc1	active: 1 µM	
O=C(Cc1cccs1)Nc1nc2c(ccc3ccccc32)s1	inconclusive [inhibitor, single point]	
Cc1cc(C)c2sc(N(CCN(C)C)C(=O)c3c(F)cccc3F)nc2c1	inconclusive [inhibitor, single point]	
COC(=O)c1cccc(-c2ccc(C(c3c(C)[nH][nH]c3=O)c3c(C)[nH][nH]c3=O)o2)c1		inactive: -15.1%
CCc1ccc(-c2cc(C)no2)cc1S(=O)(=O)N1CCN(c2ccccn2)CC1		inactive: 5.8%
Cc1ccccc1CN1C[C@@H]2C[C@@H](c3cn(C)nc3-c3ccccc3)N3CCC[C@@]23C1=O	inconclusive [inhibitor, single point]	
Cc1cc(N2CCCC2)nc(-c2ccccc2O)n1	inconclusive [inhibitor, single point]	
COc1ccc(C(=O)NNC(=O)CSc2nnc(-c3cccnc3)o2)cc1	inconclusive [inhibitor, single point]	
CCCc1cc(C(N)=O)c(NC(=O)c2ccco2)s1	inconclusive [activator, single point]	
CCc1ccc(N=C2NC(=O)/C(=C/c3cc(OC)c(OC)c(OC)c3)S2)cc1	inconclusive [inhibitor, single point]	
CCOC(=O)Cc1nnc2c(Nc3ccc(C)cc3)nc3nonc3n12		inactive: -9.63%
COc1cc2c(cc1OC)CN(C(=O)c1ccc(S(=O)(=O)N3CCCCCC3)cc1)CC2	inconclusive [activator, single point]	
Cc1occc1-c1n[nH]c(=S)n1-c1ccccc1	inconclusive [inhibitor, single point]	
O=S(=O)(Nc1cc(O)cc2cccnc12)c1ccc(Cl)s1	inconclusive [inhibitor, single point]	
COC(=O)c1scc(C)c1S(=O)(=O)Nc1ccc(C)cc1		inactive: -16.7%
CCc1nnc2c3cnn(-c4ccccc4)c3ncn12	inconclusive [inhibitor, full curve, poor fit]	
Cc1ccc(-n2nnnc2SCC(=O)Nc2cccnc2Cl)cc1	active: 12.6 µM	
O=S1(=O)N=C(N/N=C/c2ccco2)c2ccccc21	inconclusive [inhibitor, single point]	
Cc1ccc(O)c(NC(=O)c2noc(C(C)C)c2[N+](=O)[O-])c1	inconclusive [activator, partial curve]	
Oc1oc(-c2ccccc2)nc1C=Nc1ccccc1	inconclusive [inhibitor, single point]	
CCCCOc1ccc(NC(=O)CSc2cccc3cccnc23)cc1	inconclusive [inhibitor, single point]	
CCN(c1ccccc1)S(=O)(=O)c1ccc(C(=O)Nc2nccs2)cc1	inconclusive [inhibitor, single point]	
Cc1ccnc(NC(=O)c2ccccc2NC(=O)c2ccc(Cl)cc2Cl)c1	active: 12.6 µM	

SMILES	Potency	activity, negative = inhibition
COc1ccc(/C=N/NC(=S)Nc2ccccc2[N+](=O)[O-])cc1O	active: 3.16 µM	
Cc1ccc(S(=O)(=O)N/N=C/c2ccc(O)cc2O)cc1[N+](=O)[O-]	inconclusive [inhibitor, single point]	
Cc1nn(C)c(C)c1/C=C/C(=O)c1ccc(Cl)cc1Cl	inconclusive [inhibitor, single point]	
CCN(CC(=O)Nc1c(F)cccc1F)C(=O)C1CCCN(C(=O)c2ccc(Cl)cc2)C1 (stereo not given)	active: 11.2 µM	
CCOc1cccc(-c2c(C(=O)N/N=C/c3ccc(C)o3)nnn2-c2nonc2N)c1	inconclusive [inhibitor, single point]	
O=[N+]([O-])c1cccc(-c2ccc(SCc3ccccn3)nn2)c1	inconclusive [activator, partial curve]	
Cc1ccc(SCCSc2nc(C)cc(=O)[nH]2)cc1	inconclusive [inhibitor, partial curve]	
O=C(Nc1ccc(F)cc1)c1ccc2c(=O)n3c(nc2c1)CCCCC3	inconclusive [inhibitor, single point]	
COc1ccc(CNC(=S)NC2CCCC2)cc1	active: 7.94 µM	
Cn1ccnc1SCC(=O)c1ccc2ccccc2c1	inconclusive [inhibitor, single point]	
O=c1oc(/C=C/c2ccccc2)nc2sc3c(c12)CCC3		inactive: 14.3%
CC1CC(=S)Nc2ccccc2N1C(=O)Nc1ccccc1 (stereo not given)	inconclusive [inhibitor, single point]	
OCCNCc1cc(Br)ccc1OCc1ccc(Cl)cc1		inactive: -9.03%
CCOC(=O)c1[nH]c(C=O)c(C(=O)OCC)c1C		inactive: -2.4%
COc1ccc(C(C)NCCC(c2ccc(OC(C)C)cc2)c2ccccc2OC)cc1 (stereo not given)	inconclusive [inhibitor, single point]	
Cc1oc2ccc(OS(C)(=O)=O)cc2c1C(=O)OC(C)C	inconclusive [activator, single point]	
CC(=O)C1=C(O)C(=O)N(Cc2ccccc2)C1c1ccc([N+](=O)[O-])cc1 (stereo not given)		inactive: -0.603%
CCC(=O)O[C@]1(C(=O)CCl)[C@@H](C)C[C@H]2[C@@H]3CCC4=CC(=O)C=C[C@]4(C)[C@@]3(F)[C@@H](O)C[C@@]21C	inconclusive [inhibitor, single point]	
CC(C)C[C@H](NC(=O)c1[nH]cnc1C(=O)Nc1ccc(Cl)cc1)C(=O)OC(C)(C)C	active: 3.98 µM	
CNc1ccc(Br)cc(C(=O)/C=C/c2cccc(OC)c2)c1=O	inconclusive [inhibitor, single point]	
COc1cccc(/C=N/NC(=O)Cn2ccnc2C)c1	inconclusive [activator, single point]	
NC(=O)c1ccccc1OCc1cccc2ccccc12		inactive: -18%
